Reference: the supplement of paper PMC4604168 (melanoma cell lines)
This is one part of the list. Most values come without repeats; read them as rough.

What was measured:
Assay in all cases: cell count relative to DMSO control; melanoma cells; higher = more viable cells
Details in all cases: library dose: standard library concentration; 72 h
[1] = test system: A101D
[2] = test system: A2058
[3] = test system: A375
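Further: cells treated in 1,536-well plates, then fixed and DAPI-stained, with nuclei counted from automated high-throughput microscope images.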

Row | Structure (SMILES) | cell count [1] | cell count [2] | cell count [3]
1 | N#CC[C@H](C1CCCC1)n1cc(-c2ncnc3[nH]ccc23)cn1 [ruxolitinib] + N.N.[Cl][Pt][Cl] [cisplatin] (first compound 5 µM, partner dose 8 µM) | 34.5% | 70.8% | 79.5%
2 | CC1(C)CCC(c2ccc(Cl)cc2)=C(CN2CCN(c3ccc(C(=O)NS(=O)(=O)c4ccc(N[C@H](CCN5CCOCC5)CSc5ccccc5)c(S(=O)(=O)C(F)(F)F)c4)cc3)CC2)C1 + N.N.[Cl][Pt][Cl] [cisplatin] (first compound 2 µM, partner dose 8 µM) | 40.2% | 78.8% | 67.4%
3 | Cn1c(=O)n(-c2ccc(C(C)(C)C#N)cc2)c2c3cc(-c4cnc5ccccc5c4)ccc3ncc21 + C[As](C)SC[C@H](NC(=O)CC[C@H](N)C(=O)O)C(=O)NCC(=O)O [Darinaparsin] (first compound 0.02 µM, partner dose 2 µM) | 68.7% | 57.9% | 87.5%
4 | N#CC[C@H](C1CCCC1)n1cc(-c2ncnc3[nH]ccc23)cn1 [ruxolitinib] + Cn1cc(C2=C(c3cn(C4CCN(Cc5ccccn5)CC4)c4ccccc34)C(=O)NC2=O)c2ccccc21 [Enzastaurin] (first compound 5 µM, partner dose 4 µM) | 123% | 70.8% | 118%
5 | CCN(CC)CCNC(=O)c1c(C)[nH]c(/C=C2\C(=O)Nc3ccc(F)cc32)c1C [sunitinib] + C[As](C)SC[C@H](NC(=O)CC[C@H](N)C(=O)O)C(=O)NCC(=O)O [Darinaparsin] (first compound 2 µM, partner dose 2 µM) | 57.2% | 75% | 72.4%
6 | C=C(c1ccc(C(=O)O)cc1)c1cc2c(cc1C)C(C)(C)CCC2(C)C [Bexarotene] + C[As](C)SC[C@H](NC(=O)CC[C@H](N)C(=O)O)C(=O)NCC(=O)O [Darinaparsin] (first compound 10 µM, partner dose 2 µM) | 104% | 93.3% | 110%
7 | Cc1ccc(Nc2nccc(N(C)c3ccc4c(C)n(C)nc4c3)n2)cc1S(N)(=O)=O [Pazopanib] + C[C@]12O[C@H](C[C@]1(O)CO)n1c3ccccc3c3c4c(c5c6ccccc6n2c5c31)CNC4=O [Lestaurtinib] (first compound 2 µM, partner dose 0.02 µM) | 61.4% | 98.6% | 99.5%
8 | CC1(C)CCC(c2ccc(Cl)cc2)=C(CN2CCN(c3ccc(C(=O)NS(=O)(=O)c4ccc(N[C@H](CCN5CCOCC5)CSc5ccccc5)c(S(=O)(=O)C(F)(F)F)c4)cc3)CC2)C1 + Cn1cc(C2=C(c3cn(C4CCN(Cc5ccccn5)CC4)c4ccccc34)C(=O)NC2=O)c2ccccc21 [Enzastaurin] (first compound 2 µM, partner dose 4 µM) | 50.6% | 71.3% | 31.3%
9 | NC1(c2ccc(-c3nc4ccn5c(=O)[nH]nc5c4cc3-c3ccccc3)cc2)CCC1 + N.N.[Cl][Pt][Cl] [cisplatin] (first compound 2 µM, partner dose 8 µM) | 68.1% | 78.9% | 94.7%
10 | C[C@]1(O)C[C@@H](c2nc(-c3ccc4ccc(-c5ccccc5)nc4c3)c3c(N)nccn32)C1 + N.N.[Cl][Pt][Cl] [cisplatin] (first compound 2 µM, partner dose 8 µM) | 79.3% | 134% | 91.9%
11 | CCCCCCCCCCCCCCCCCCOP(=O)([O-])OC1CC[N+](C)(C)CC1 [Perifosine] + C[C@]12O[C@H](C[C@]1(O)CO)n1c3ccccc3c3c4c(c5c6ccccc6n2c5c31)CNC4=O [Lestaurtinib] (first compound 2 µM, partner dose 0.02 µM) | 63.1% | 70.5% | 92.2%
12 | Cn1cnc2c(F)c(Nc3ccc(Br)cc3Cl)c(C(=O)NOCCO)cc21 [selumetinib] + C[As](C)SC[C@H](NC(=O)CC[C@H](N)C(=O)O)C(=O)NCC(=O)O [Darinaparsin] (first compound 0.075 µM, partner dose 2 µM) | 72.3% | 92.2% | 89.2%
